PMC7810945
Results are given in words; binding and its absence hold for the method and conditions named. Binding seen in cells or lysates may run through a third protein. Some binding calls cover weakened binding; strength is not graded here. For part of these data: Where a sequence is shown, tags or fusion partners need not be part of it. One block for each binder: values may come before it.

Legend:
[1] = biological target: T1, GST‐STRA8 fusion protein (mouse) (UniProt P70278); assay: pull-down; GST or GST fusion proteins on glutathione‐agarose beads incubated 2 h at 4°C with pre-cleared lysates (500 µg‐1 mg) of transfected HEK293T cells or P10 dpp male germ cells; 25 mmol/L Tris‐HCl pH 7.5, 150 mmol/L NaCl, 0.5% Triton‐X100, 1 mmol/L EDTA, 5% glycerol; Western blot; only the target purified
T1 sequence: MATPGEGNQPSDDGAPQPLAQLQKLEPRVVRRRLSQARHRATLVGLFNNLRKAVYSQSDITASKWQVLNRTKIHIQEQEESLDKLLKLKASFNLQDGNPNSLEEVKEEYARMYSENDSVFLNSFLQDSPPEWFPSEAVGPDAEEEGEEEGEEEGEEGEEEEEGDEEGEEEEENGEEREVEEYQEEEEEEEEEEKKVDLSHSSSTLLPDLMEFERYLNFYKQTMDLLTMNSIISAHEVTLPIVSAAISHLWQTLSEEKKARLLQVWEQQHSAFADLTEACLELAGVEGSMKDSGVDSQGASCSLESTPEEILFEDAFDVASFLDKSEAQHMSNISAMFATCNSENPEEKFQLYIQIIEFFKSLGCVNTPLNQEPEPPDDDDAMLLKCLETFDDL

[2] = biological target: T2, endogenous STRA8 of P10 dpp male germ cells (mouse (endogenous in P10 dpp male germ cells)) (UniProt P70278); assay: co-IP; endogenous proteins, nuclear extracts of P10 dpp male germ cells; anti‐STRA8 antibody on Dynabeads protein G
T2 sequence: T1 sequence

[3] = biological target: T3, GST‐HLH‐only‐STRA8 (mouse) (UniProt P70278); assay: pull-down; GST or GST fusion proteins on glutathione‐agarose beads incubated 2 h at 4°C with pre-cleared lysates (500 µg‐1 mg) of transfected HEK293T cells or P10 dpp male germ cells; 25 mmol/L Tris‐HCl pH 7.5, 150 mmol/L NaCl, 0.5% Triton‐X100, 1 mmol/L EDTA, 5% glycerol; Western blot; only the target purified
T3 sequence: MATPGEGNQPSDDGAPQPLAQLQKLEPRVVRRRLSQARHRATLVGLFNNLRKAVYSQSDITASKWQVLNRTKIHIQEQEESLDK

GST‐ΔHLH‐STRA8 (mouse) = biological target: T4, GST‐ΔHLH‐STRA8 (mouse) (UniProt P70278); assay: as above
T4 sequence: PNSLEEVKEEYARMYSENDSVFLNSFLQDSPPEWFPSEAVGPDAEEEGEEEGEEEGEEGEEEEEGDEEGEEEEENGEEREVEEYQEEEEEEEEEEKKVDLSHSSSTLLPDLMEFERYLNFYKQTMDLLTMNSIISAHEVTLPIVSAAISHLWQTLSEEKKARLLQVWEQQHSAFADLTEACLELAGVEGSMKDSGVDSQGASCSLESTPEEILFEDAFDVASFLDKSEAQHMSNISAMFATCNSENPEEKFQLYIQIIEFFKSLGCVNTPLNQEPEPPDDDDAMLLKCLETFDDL

[4] = biological target: T5, Myc‐STRA8 (pcDNA3‐Myc‐Stra8) in P19EC cells (mouse) (UniProt P70278); assay: co-IP; total lysates of transfected HEK293T cells or of transfected P19EC cells treated with 1 µmol/L ATRA for 24 h; anti‐Myc or anti‐FLAG antibody on Dynabeads protein G, 2 h at 4°C; 50 mmol/L Tris‐HCl pH 7.6, 150 mmol/L NaCl, 2 mmol/L EDTA, 0.5% NP‐40, 3% glycerol
T5 sequence: T1 sequence

[5] = biological target: T6, Myc‐SOHLH1 (pcDNA3‐Myc‐SOHLH1) (mouse) (UniProt Q6IUP1); assay: as above
T6 sequence: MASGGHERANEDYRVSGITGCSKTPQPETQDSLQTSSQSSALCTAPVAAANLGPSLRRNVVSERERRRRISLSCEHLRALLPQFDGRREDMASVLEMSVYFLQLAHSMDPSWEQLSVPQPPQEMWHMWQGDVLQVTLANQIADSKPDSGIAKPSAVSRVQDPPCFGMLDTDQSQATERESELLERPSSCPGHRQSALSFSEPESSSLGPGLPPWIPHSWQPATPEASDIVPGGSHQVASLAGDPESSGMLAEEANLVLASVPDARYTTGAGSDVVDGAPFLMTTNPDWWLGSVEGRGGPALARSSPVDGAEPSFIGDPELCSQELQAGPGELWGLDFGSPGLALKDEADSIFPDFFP

[6] = biological target: T7, Myc‐HLH‐only‐STRA8 (mouse) (UniProt P70278); assay: as above
T7 sequence: T3 sequence

[7] = biological target: T8, Myc‐STRA8 (pcDNA3‐Myc‐STRA8) in HEK293T cells (mouse) (UniProt P70278); assay: as above
T8 sequence: T1 sequence

Myc‐ΔHLH‐STRA8 (mouse) = biological target: T9, Myc‐ΔHLH‐STRA8 (mouse) (UniProt P70278); assay: as above
T9 sequence: T4 sequence

binding [1]: binds
B1: Myc‐SOHLH1 (pcDNA3‐Myc‐SOHLH1) (protein, UniProt Q6IUP1 1-357)
chain: T6 sequence

binding [2]: binds | binding [1]: binds
B2: endogenous SOHLH1 of P10 dpp male germ cells (protein, UniProt Q6IUP1 1-357)
chain: T6 sequence

binding [3]: binds | binding [1]: binds | binding (GST‐ΔHLH‐STRA8 (mouse)): no binding
B3: Myc‐STRA8 (pcDNA3‐Myc‐STRA8) in HEK293T cells (protein, UniProt P70278 1-393)
chain: T1 sequence

binding [1]: binds
B4: endogenous STRA8 of P10 dpp male germ cells (protein, UniProt P70278 1-393)
chain: T1 sequence

binding [4]: binds
B5: endogenous STRA8 of P19EC cells treated with ATRA (protein, UniProt P70278 1-393)
chain: T1 sequence

binding [5]: binds
B6: STRA8 without tag (pCMV‐STRA8) in HEK293T cells (protein, UniProt P70278 1-393)
chain: T1 sequence

binding [6]: binds | binding [7]: binds | binding (Myc‐ΔHLH‐STRA8 (mouse)): no binding
B7: GFP‐STRA8 fusion protein (protein, UniProt P70278 1-393)
chain: T1 sequence
